From publication PMC10244618
Results are given in words; binding and its absence hold for the method and conditions named. Some binding calls cover weakened binding; strength is not graded here.

Chains of the proteins cited; added tags and fusions are not shown. Lines headed by an entry give the natural chain unless they say otherwise; changes in a name come on top. A line that says so, or that is headed by a name, gives the form on record, which may keep a tag or linker. Residues count along the entry.
UniProt P35240: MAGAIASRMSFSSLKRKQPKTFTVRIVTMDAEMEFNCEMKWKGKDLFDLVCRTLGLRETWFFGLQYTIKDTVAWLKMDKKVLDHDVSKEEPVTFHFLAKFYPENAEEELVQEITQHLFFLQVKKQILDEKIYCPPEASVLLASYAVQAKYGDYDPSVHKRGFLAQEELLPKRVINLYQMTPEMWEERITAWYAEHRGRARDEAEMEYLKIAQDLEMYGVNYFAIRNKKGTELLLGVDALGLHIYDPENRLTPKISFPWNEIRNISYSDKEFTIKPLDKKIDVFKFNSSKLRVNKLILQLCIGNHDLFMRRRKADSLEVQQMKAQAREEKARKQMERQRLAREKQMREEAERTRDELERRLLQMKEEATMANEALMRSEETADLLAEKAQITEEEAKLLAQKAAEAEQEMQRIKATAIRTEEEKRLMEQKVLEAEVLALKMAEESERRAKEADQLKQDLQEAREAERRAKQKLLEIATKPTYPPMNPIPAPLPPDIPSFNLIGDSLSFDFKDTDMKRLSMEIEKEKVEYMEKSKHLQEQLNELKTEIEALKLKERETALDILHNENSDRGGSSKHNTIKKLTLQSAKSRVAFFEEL
NF2 C-terminal half of isoform 1 (AA M308-595): residues 308-595 of P35240
NF2 isoform 7 with an exon 17 derived C-terminus (P35240-1, form named): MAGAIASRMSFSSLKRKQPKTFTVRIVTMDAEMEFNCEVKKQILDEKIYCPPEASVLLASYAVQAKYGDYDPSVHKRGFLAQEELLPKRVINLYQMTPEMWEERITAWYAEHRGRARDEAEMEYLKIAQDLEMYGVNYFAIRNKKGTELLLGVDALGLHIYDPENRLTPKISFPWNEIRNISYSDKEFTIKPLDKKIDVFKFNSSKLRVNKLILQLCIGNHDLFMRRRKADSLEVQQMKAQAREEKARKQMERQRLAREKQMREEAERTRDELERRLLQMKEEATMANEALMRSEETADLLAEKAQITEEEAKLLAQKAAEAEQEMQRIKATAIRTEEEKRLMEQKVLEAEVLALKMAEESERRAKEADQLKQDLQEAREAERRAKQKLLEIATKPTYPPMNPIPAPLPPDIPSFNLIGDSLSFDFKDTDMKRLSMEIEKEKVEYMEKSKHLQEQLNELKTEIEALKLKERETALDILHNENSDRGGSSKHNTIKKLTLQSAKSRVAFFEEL
NF2 isoform 7, full length (P35240-4, form named): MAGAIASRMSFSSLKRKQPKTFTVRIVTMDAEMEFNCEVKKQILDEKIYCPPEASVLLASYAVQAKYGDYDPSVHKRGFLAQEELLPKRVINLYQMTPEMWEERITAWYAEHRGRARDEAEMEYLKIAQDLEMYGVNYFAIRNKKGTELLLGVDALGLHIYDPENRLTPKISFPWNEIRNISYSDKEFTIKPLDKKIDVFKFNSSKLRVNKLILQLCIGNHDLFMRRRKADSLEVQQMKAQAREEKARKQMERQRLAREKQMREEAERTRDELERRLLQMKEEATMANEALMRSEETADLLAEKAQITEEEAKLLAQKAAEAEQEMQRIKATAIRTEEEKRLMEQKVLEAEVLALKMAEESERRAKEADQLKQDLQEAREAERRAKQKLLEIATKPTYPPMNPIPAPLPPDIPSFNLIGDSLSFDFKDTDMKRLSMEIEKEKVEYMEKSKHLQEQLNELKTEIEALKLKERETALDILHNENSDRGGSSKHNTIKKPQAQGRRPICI
NF2 N-terminal half of isoform 7 (AA 1-K249) (P35240-4, form named): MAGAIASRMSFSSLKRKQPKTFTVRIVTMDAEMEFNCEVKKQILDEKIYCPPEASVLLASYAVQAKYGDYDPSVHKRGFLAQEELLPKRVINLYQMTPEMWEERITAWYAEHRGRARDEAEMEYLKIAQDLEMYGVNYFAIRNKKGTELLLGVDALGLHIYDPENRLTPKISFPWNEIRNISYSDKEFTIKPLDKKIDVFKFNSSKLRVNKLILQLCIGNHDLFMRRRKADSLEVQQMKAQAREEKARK
NF2 C-terminal half of isoform 7 (AA M225-507) (P35240-4, form named): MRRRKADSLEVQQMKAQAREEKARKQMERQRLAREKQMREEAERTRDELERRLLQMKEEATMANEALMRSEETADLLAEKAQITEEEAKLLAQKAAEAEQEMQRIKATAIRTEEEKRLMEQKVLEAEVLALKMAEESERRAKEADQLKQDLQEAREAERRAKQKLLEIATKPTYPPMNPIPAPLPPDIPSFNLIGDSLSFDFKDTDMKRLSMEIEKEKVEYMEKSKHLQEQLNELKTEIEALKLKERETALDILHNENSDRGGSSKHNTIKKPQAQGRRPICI
UniProt Q9Y6C2: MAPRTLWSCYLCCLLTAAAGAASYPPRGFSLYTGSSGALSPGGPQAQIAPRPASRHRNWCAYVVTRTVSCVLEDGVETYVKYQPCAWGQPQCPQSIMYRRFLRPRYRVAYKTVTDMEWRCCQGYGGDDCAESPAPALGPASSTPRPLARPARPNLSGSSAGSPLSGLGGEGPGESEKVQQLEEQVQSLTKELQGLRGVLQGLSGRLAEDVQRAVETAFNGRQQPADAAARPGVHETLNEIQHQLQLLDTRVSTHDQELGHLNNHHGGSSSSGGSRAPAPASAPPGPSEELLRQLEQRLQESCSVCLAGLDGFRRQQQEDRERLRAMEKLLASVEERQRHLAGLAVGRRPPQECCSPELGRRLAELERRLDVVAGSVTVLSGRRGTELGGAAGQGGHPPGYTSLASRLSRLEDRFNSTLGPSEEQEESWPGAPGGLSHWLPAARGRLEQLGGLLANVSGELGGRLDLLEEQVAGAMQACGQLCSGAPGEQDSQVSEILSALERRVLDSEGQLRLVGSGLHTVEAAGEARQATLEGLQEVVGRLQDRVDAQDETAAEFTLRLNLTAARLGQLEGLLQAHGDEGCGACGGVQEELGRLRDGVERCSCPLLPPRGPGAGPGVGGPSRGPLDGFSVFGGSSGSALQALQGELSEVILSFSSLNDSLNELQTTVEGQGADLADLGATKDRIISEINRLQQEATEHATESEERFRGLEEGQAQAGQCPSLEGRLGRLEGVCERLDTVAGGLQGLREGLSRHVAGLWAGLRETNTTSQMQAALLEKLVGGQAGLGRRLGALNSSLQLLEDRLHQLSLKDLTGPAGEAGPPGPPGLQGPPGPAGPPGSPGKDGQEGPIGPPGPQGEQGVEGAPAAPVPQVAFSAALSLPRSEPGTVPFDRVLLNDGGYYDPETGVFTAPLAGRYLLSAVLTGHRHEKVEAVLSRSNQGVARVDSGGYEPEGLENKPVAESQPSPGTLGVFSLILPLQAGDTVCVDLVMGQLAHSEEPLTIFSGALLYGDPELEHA

What was measured:
[1] = biological target: NF2 isoform 7 with an exon 17 derived C-terminus (human) (UniProt P35240); test: two-hybrid; as a1 (Fig 1B), result with kinase-dead ABL2KD (K35M) only, no active tyrosine kinase
[2] = biological target: phosphoinositide-3-kinase regulatory subunit 3 (human) (UniProt Q92569); test: condition: only without active tyrosine kinase ABL2; two-hybrid; as a3 (Fig S1B), without active tyrosine kinase ABL2
[3] = biological target: NF2 isoform 7, full length (human) (UniProt P35240); test: condition: only without active ABL2 (kinase-dead ABL2KD co-expressed); two-hybrid; as a1 (Fig 1B), result with kinase-dead ABL2KD (K35M) only, no active tyrosine kinase
[4] = biological target: NF2 isoform 7, full length (human) (UniProt P35240); test: two-hybrid; reverse Y2H strains (RBait_S3 / RPrey_S3): interacting pairs repress growth on agar lacking adenine; NF2-Iso7 as bait (pBTM116-D9), WT partners as prey; 30°C; PIK3R3 with ABL2
[5] = biological target: phosphoinositide-3-kinase regulatory subunit 3 (human) (UniProt Q92569); test: two-hybrid; Y2H mapping matrix (Fig S1B), reverse bait-prey configuration of Fig 1B: NF2 N- and C-terminal halves as prey; growth on selective agar; with active ABL2 where the kinase mattered
[6] = biological target: NF2 isoform 7, full length (human) (UniProt P35240); test: two-hybrid; pair-wise Y2H colony assay, 384 plate format (Figs 3A, S3): single-site NF2 variants in isoform 1 and isoform 7 as bait, WT partners as prey, in duplicate, with active ABL2 and with inactive ABL2KD
[7] = biological target: NF2 (moesin–ezrin–radixin-like [MERLIN] tumor suppressor) isoform 1, full length (human) (UniProt P35240); test: two-hybrid; Y2H colony matrix (Fig 1B): NF2 constructs as bait, partners as prey; growth of diploid yeast on selective agar; each pair tested with active tyrosine kinase ABL2 and with kinase-dead ABL2KD (K35M) co-expressed
[8] = biological target: NF2 N-terminal half of isoform 7 (AA 1-K249) (human) (UniProt P35240); test: as above
[9] = biological target: NF2 isoform 7 with an exon 17 derived C-terminus (human) (UniProt P35240); test: as above
[10] = biological target: NF2 isoform 7, full length (human) (UniProt P35240); test: as above
[11] = biological target: elastin microfibril interfacer 1 protein (human) (UniProt Q9Y6C2); test: two-hybrid; Y2H mapping matrix (Fig S1B), reverse bait-prey configuration of Fig 1B: NF2 N- and C-terminal halves as prey; growth on selective agar; with active ABL2 where the kinase mattered
[12] = biological target: NF2 isoform 1 S265L (human) (UniProt P35240); test: two-hybrid; pair-wise Y2H colony assay, 384 plate format (Figs 3A, S3): single-site NF2 variants in isoform 1 and isoform 7 as bait, WT partners as prey, in duplicate, with active ABL2 and with inactive ABL2KD
[13] = biological target: NF2 isoform 1 S518D (human) (UniProt P35240); test: two-hybrid; Y2H colony matrix (Fig 1B): NF2 constructs as bait, partners as prey; growth of diploid yeast on selective agar; each pair tested with active tyrosine kinase ABL2 and with kinase-dead ABL2KD (K35M) co-expressed

Row | Substance | binding [1] | binding [2] | binding [3] | binding [4] | binding [5] | binding [6] | binding [7] | binding [8] | binding [9] | binding [10] | binding [11] | binding [12] | binding [13]
1 | NF2 C-terminal half of isoform 7 (AA M225-507) (from UniProt P35240-4 225-507) (domain or fragment) | – | – | – | – | – | – | no binding | no binding | binds | binds | binds | – | –
2 | elastin microfibril interfacer 1 protein (from UniProt Q9Y6C2 1-1016) | – | – | – | binds | – | binds | no binding | – | binds | binds | binds | binds | binds weakly
3 | NF2 N-terminal half of isoform 7 (AA 1-K249) (from UniProt P35240-4 1-249) (domain or fragment) | – | no binding | – | – | binds | – | – | – | – | – | – | – | –

The remaining lines, values ahead:

Row | binding [1] | binding [2] | binding [3] | binding [4] | binding [5] | binding [6] | binding [7] | binding [8] | binding [9] | binding [10] | binding [11] | binding [12] | binding [13] | Substance
4 | binds weakly | no binding | no binding | binds | binds | binds weakly | no binding | binds | binds | binds | – | – | – | phosphoinositide-3-kinase regulatory subunit 3 (from UniProt Q92569 1-461)
5 | – | – | – | – | – | binds weakly | no binding | no binding | binds | binds | binds | – | – | NF2 C-terminal half of isoform 1 (AA M308-595) (from UniProt P35240-1 308-595) (domain or fragment)
